Source: PubChem BioAssay (Tox21)
“And” between values parts separate entries of the source, which are not always exact repeats. Equal values may be shown once. The shares of active, inactive and inconclusive entries below differ from those in the screen. For part of these data: Potencies of inconclusive entries are left out as doubtful fits. Some compounds were tested as several samples or in several runs, with calls that do not always agree. The source made the active and inactive calls. Unless noted, calls follow the shape of the dose curve; as a rule, active = well fitted curve in the direction sought with a large enough effect in the repeat runs; inconclusive = weak or mixed curves; inactive = no such curve, though single readings can be large; an effect the other way counts as inactive or inconclusive.

Experiments:
[1] = qHTS assay to identify small molecule HDAC inhibitors (AID 1259364); also: potency is read from the fitted curve at half-maximal effect;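 also: wild-type HCT-116 cells with endogenous class I/II HDAC activity; nearly all actives have a fitted effect of over 45% in size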
In short: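 HCT-116 wt cells, 1,500/well, overnight attach. Compounds (DMSO) 2 h, 37 °C. HDAC-Glo I/II, 30 min RT. Luminescence.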

[2] = qHTS assay to identify small molecule phospholipidosis (PLD) inducers (AID 1259344; active = well fitted curve in the direction sought with a large enough effect; inconclusive = small, poorly fitted or top-dose-only effect, or another doubt; inactive = no such curve, though single readings can be large; an effect the other way counts as inactive or inconclusive; also: potency is read from the fitted curve at half-maximal effect)
In short: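 Accumulated phospholipid, stained red by LipidTOX during 24 h compound treatment of HepG2 cells at 37 C, is quantified from images as pit number and intensity, normalised per cell using Hoechst-stained nuclei.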

[3] = target: Estrogen receptor (Homo sapiens) (UniProt P03372); assay: qHTS assay to identify small molecule antagonists of the estrogen receptor alpha (ER-alpha) signaling pathway using the BG1 cell line in the presence of 0.1 nM 17-beta-estradiol (AID 1259244); also: nearly all actives have a fitted effect of over 50% in size; also: potency is read from the fitted curve at half-maximal effect
In short: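 Luciferase signal from VM7Luc4E2 ERE-reporter cells, co-dosed with test compound and 0.1 nM final 17beta-estradiol for 22 h, read with ONE-Glo.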

[4] = qHTS assay to identify small molecule agonists of the estrogen receptor beta (ER-beta) signaling pathway - cell viability counter screen (AID 1259380); also: nearly all actives have a fitted effect of over 30% in size; also: potency is read from the fitted curve at half-maximal effect
In short: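 Compounds dissolved in DMSO were pin-transferred onto ER-beta-UAS-bla HEK293T cells that had settled 6 hr, and exposure ran 16 hr at 37C. Following the reporter read, CellTiter-Glo luminescence after 30 min at room temperature indicated cytotoxicity.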

[5] = qHTS assay to identify small molecule antagonists of the sonic hedgehog signaling (Shh) pathway (AID 1259369; calls by dose curve; also: nearly all actives have a fitted effect of over 45% in size; also: potency is read from the fitted curve at half-maximal effect)
In short: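 Read-out is luminescence from a firefly luciferase gene controlled by the Gli1 response element, in 3T3Gli1-Luc cells pre-incubated 4hr then exposed to compounds and conditioned medium for 24hr.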

[6] = qHTS assay to identify small molecule agonists of the sonic hedgehog signaling (Shh) pathway - cell viability counter screen (AID 1259366); also: nearly all actives have a fitted effect of over 50% in size; also: potency is read from the fitted curve at half-maximal effect
In short: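 In quantitative high-throughput format, 3T3 Gli1-Luc cells were exposed to compounds for 24hr and multiplexed for viability using CellTiter-Fluor, incubated 1hr at 37C before the fluorescence read.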

[7] = target: Estrogen receptor beta (Homo sapiens) (UniProt Q92731); assay: qHTS assay to identify small molecule antagonists of the estrogen receptor beta (ER-beta) signaling pathway (AID 1259378; active = well fitted inhibition curve with a large enough effect in the signal ratio in the repeat runs, not every such curve was filed as active; inconclusive = weak or mixed curves, or effect the other way; inactive = no such curve, though single readings can be large or run the other way; the % refers to the signal ratio; also: potency is read from the fitted curve at half-maximal effect; as to activity, negative = inhibition: % is scaled to controls: 0 for no effect and ±100 for the full control effect); settings: ER-beta-UAS-bla HEK293T, beta-lactamase FRET ratio, 16 h
In short: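 Antagonist mode: compounds added to beta-lactamase reporter HEK293T ER-beta-UAS cells stimulated with E2 (1nM final), 16 hr at 37C. LiveBLAzer B/G FRET substrate, 2 hours room temperature, fluorescence read-out.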

[8] = qHTS assay to identify small molecule agonists of the androgen receptor (AR) signaling pathway in the presence of an antagonist - cell viability counter screen (AID 1259379); also: potency is read from the fitted curve at half-maximal effect; nearly all actives have a fitted effect of over 25% in size
In short: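 Each compound was tested at 15 concentrations on MDA-kb2 cells in the presence of 3.0uM nilutamide. Viability was measured by CellTiter-Fluor fluorescence after a 16 hr incubation at 37C in a CO2-free atmosphere.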

[9] = qHTS assay to identify small molecule antagonists of the estrogen receptor beta (ER-beta) signaling pathway - cell viability counter screen (AID 1259382); also: potency is read from the fitted curve at half-maximal effect; nearly all actives have a fitted effect of over 55% in size
In short: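 CellTiter-Glo ATP luminescence measured after the LiveBLAzer read in the same wells; ER-beta-UAS-bla HEK293T cells, 16 hr compound treatment with 1nM 17-beta-estradiol agonist at 37C, 5% CO2.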

[10] = qHTS assay to identify small molecule antagonists of the sonic hedgehog signaling (Shh) pathway - cell viability counter screen (AID 1259367); also: potency is read from the fitted curve at half-maximal effect; nearly all actives have a fitted effect of over 55% in size
In short: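 CellTiter-Fluor signal in conditioned medium-stimulated 3T3 Gli1-Luc cells, 23 hr compound exposure, 37C.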

[11] = target: Estrogen receptor beta (Homo sapiens) (UniProt Q92731); assay: qHTS assay to identify small molecule agonists of the estrogen receptor beta (ER-beta) signaling pathway (AID 1259377; active = well fitted activation curve with a large enough effect in the signal ratio in the repeat runs, not every such curve was filed as active; inconclusive = weak or mixed curves, or effect the other way; the % refers to the signal ratio; also: potency is read from the fitted curve at half-maximal effect; as to activation: % is scaled to controls: 0 for no effect and ±100 for the full control effect); settings: ER-beta-UAS-bla HEK293T, beta-lactamase FRET ratio, 16 h
In short: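 Reporter cells (HEK293T, ER-beta-UAS-bla) receive compounds or DMSO after a 6 hr pre-incubation. They then incubate 16 hr at 37C/5% CO2, and fluorescence from LiveBLAzer B/G substrate is measured after 2 hours at room temperature.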

[12] = qHTS assay to identify small molecule agonists or antagonists of the thyroid stimulating hormone receptor (TSHR) signaling pathway - wild type cell line counter screen (AID 1259384; calls by dose curve; also: % is scaled to controls: 0 for no effect and ±100 for the full control effect); settings: HEK293 wild type, cAMP HTRF counter-screen; cAMP activity change: at 92.4 µM (top of the series), hits give high values unless noted
In short: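 Counter screen in untransfected Hek293: compounds (15-point titration, triplicate) plus phosphodiesterase inhibitor Ro20-1724 added after 18 h plating; 30 min RT. Intracellular cAMP via competitive d2/cryptate immunoassay, 1 h incubation.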

[13] = qHTS assay to identify small molecule HDAC inhibitors - cell viability counter screen (AID 1259365); also: potency is read from the fitted curve at half-maximal effect; nearly all actives have a fitted effect of over 50% in size
In short: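 Measured quantity is CellTiter-Glo luminescence from wild-type HCT-116 cells after compound incubation of 2hr at 37C, 5% CO2; reagent developed 30min at room temperature.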

[14] = target: Estrogen receptor (Homo sapiens) (UniProt P03372); assay: qHTS assay to identify small molecule agonists of the estrogen receptor alpha (ER-alpha) signaling pathway in the presence of an antagonist (AID 1259383; calls by dose curve; also: potency is read from the fitted curve at half-maximal effect; nearly all actives have a fitted effect of over 15% in size)
In short: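 Luminescent ERE-luciferase reporter, VM7Luc4E2 cells (endogenous ER-alpha); 10.0nM ICI-182,780 final; 15-point compound titration; 22hr at 37C; ONE-Glo, 30min RT.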

[15] = activity, negative = inhibition: at 92.4 µM (top of the series) unless noted
[16] = activation: at 92.4 µM (top of the series) unless noted
Tags tell the direction and shape of the fitted curve or compound fluorescence and quenching.

Sequence of UniProt Q92731 (Q92731 whole entry, looked up): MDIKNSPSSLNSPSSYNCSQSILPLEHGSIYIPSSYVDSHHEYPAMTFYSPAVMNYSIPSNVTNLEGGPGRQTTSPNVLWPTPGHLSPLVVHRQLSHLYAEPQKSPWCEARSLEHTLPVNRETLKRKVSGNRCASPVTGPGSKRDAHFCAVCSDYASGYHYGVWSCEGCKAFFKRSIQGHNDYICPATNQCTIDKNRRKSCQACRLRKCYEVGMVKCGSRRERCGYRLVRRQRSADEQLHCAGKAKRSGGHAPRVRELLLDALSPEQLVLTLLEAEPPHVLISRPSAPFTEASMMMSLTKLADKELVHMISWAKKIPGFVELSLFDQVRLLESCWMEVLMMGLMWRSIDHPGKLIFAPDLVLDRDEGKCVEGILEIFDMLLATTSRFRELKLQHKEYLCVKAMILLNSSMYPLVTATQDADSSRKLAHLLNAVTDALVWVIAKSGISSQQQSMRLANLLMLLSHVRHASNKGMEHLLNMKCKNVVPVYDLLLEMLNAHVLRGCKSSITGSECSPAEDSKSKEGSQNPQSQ
Sequence of UniProt P03372 (P03372 whole entry, looked up): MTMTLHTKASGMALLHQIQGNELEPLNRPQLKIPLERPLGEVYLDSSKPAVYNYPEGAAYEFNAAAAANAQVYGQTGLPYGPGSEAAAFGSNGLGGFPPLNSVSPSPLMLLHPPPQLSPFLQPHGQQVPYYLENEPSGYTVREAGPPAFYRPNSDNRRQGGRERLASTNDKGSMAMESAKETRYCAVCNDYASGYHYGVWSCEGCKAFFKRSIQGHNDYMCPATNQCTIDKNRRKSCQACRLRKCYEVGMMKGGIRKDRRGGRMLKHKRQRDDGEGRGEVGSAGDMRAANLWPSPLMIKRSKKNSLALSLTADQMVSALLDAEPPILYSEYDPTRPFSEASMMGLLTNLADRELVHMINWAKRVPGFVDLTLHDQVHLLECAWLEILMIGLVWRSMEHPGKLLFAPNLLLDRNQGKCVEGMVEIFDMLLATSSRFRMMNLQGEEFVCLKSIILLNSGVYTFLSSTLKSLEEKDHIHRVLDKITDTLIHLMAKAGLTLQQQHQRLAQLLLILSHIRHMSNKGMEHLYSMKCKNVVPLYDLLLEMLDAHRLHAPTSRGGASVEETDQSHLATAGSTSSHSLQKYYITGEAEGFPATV

C[C@@H]1CCN(C(=O)[C@H](CCCN=C(N)N)NS(=O)(=O)c2cccc3c2NC[C@H](C)C3)[C@@H](C(=O)O)C1
Potency [1]: inconclusive [inhibitor, partial curve]

CCOC(=O)COc1ccc2c(C)c(CCN(CC)CC)c(=O)oc2c1Cl
Potency [2]: inactive

CCc1ccccc1O
Potency [3]: active: 19.2 µM
Potency [4]: inconclusive [cytotoxic, full curve]

Cc1c(NC(C)C)c(=O)n(-c2ccccc2)n1C
Potency [2]: inactive

CC(C)(C)c1ccc(C(=O)CCCCl)cc1
Potency [1]: inconclusive [inhibitor, partial curve]

COc1cc(C(C)=O)ccc1OCCCN1CCC(c2noc3cc(F)ccc23)CC1
Potency [2]: active: 1 µM
Potency [5]: inconclusive [inhibitor, partial curve, poor fit]
Potency [4]: inconclusive [cytotoxic, full curve]

COCCCC/C(=N\OCCN)c1ccc(C(F)(F)F)cc1
Potency [2]: inconclusive [activator, single point]
Potency [6]: inactive
Potency [5]: inconclusive [inhibitor, partial curve]
Potency [7, 15]: active: 29.8 µM
Potency [8]: inconclusive [cytotoxic, single point]
Potency [9]: inconclusive [cytotoxic, partial curve]

O=C(CCOCCOCCOCCOCCC(=O)Nc1c(I)cc(I)c(C(=O)O)c1I)Nc1c(I)cc(I)c(C(=O)O)c1I
Potency [3]: inactive
Potency [4]: inactive

Cc1[nH]cnc1CN1CCc2c(c3ccccc3n2C)C1=O
Potency [2]: inactive

C/C=C/C(=O)CCCC
Potency [1]: inactive
Potency [6]: inactive

CC(=O)[C@@]1(O)CC[C@H]2[C@@H]3C[C@H](C)C4=CC(=O)CC[C@]4(C)[C@H]3CC[C@@]21C
Potency [2]: inconclusive [activator, single point]

CCCCc1cc2ccccc2c(OCCN(C)C)n1
Potency [2]: inconclusive [activator, single point]
Potency [5]: inconclusive [inhibitor, partial curve]
Potency [4]: inconclusive [cytotoxic, partial curve]

CC(C(=O)O)c1ccc(/C=C2\CCCCC2=O)cc1 (stereo not given)
Potency [1]: inconclusive [inhibitor, partial curve, poor fit]

Nc1cc(Cl)c(O)c(Cl)c1
Potency [1]: inconclusive [inhibitor, partial curve, poor fit]
Potency [6]: inconclusive [cytotoxic, single point]
Potency [10]: inconclusive [cytotoxic]
Potency [5]: inconclusive [inhibitor, partial curve]
Potency [11, 16]: inconclusive [rising, full curve]
activity, negative = inhibition [7, 15]: inconclusive: -28.9%
cAMP activity change [12]: inconclusive: -7.14%

CCCCC(=O)O[C@]1(C(=O)CO)[C@H](C)C[C@H]2[C@@H]3CCC4=CC(=O)C=C[C@]4(C)[C@@]3(F)[C@@H](O)C[C@@]21C
Potency [2]: inactive

O=C(c1ccc(O)c(O)c1)c1ccc(O)cc1O
Potency [1]: active: 24.3 µM
Potency [13]: inconclusive [rising, partial curve, poor fit]
Potency [6]: inconclusive [rising, single point]
Potency [10]: inconclusive [cytotoxic, single point]
Potency [11, 16]: active: 1.37 µM
Potency [7, 15]: inconclusive [rising, partial curve]
Potency [8]: active: 68.5 µM
Potency [14]: inconclusive [activator, partial curve]
cAMP activity change [12]: inconclusive: -3.27%

Clc1ccc2c(c1)CCc1cccnc1C2=C1CCNCC1
Potency [2]: inconclusive [activator, partial curve]
Potency [10]: inconclusive [cytotoxic, partial curve]
Potency [8]: inconclusive [cytotoxic, single point]

CCCCOC(=O)/C=C\C(=O)OCCCC
Potency [3]: inactive
Potency [4]: inconclusive [cytotoxic, full curve]

C[N+](C)(C)CCCCCC[N+](C)(C)C
Potency [2]: inactive
Potency [5]: inactive

CC(C)(C)NSc1nc2ccccc2s1
Potency [1]: inactive

C=C(C)C1CC=C(C)CC1 (stereo not given)
Potency [3]: inactive
Potency [4]: inactive

CCCOC(=O)c1ccc(C(=O)OCCC)nc1
Potency [1]: inconclusive [inhibitor, single point]

COc1ccccc1O
Potency [2]: inconclusive [activator, single point]
activation [11, 16]: inconclusive: 8.82% and inconclusive: 13.5%
activation ([11]; at 92.4 µM (top of the series)): inactive: 0.0023%
Potency [7, 15]: inconclusive [activator]
activity, negative = inhibition [7, 15]: inconclusive: 23.1%
activity, negative = inhibition ([7]; at 92.4 µM (top of the series)): inactive: 10.5%
Potency [4]: inactive
